The values below come from paper PMC12847778.

Sequences of proteins named here, by UniProt entry; tags and fusion partners are left off.
UniProt P06730: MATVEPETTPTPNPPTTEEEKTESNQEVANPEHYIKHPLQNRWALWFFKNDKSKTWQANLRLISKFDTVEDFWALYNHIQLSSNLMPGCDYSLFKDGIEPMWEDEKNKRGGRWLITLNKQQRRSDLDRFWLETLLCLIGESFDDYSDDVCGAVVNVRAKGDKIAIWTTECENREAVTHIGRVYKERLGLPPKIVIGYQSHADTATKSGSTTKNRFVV

The target of experiment [1] is Keratin 14 (KRT14), endogenous (human (endogenous in 5637-CR/T24-CR)) (UniProt P02533). Briefly: co-IP; reciprocal Co-IP of endogenous proteins (anti-KRT14, anti-eIF4H) from lysate of resistant BLCA cells; IP Lysis Buffer, overnight 4 °C, Protein A/G magnetic beads.
For experiment [2], the target named is Flag-KRT14-ΔHead (human) (UniProt P02533). Briefly: co-IP; Co-IP of Flag-KRT14-ΔHead with endogenous eIF4H; cells not named.
Experiment [3] has as its target Flag-KRT14-FL (full-length human KRT14 with C-terminal 3×Flag) (human) (UniProt P02533). Briefly: co-IP; reciprocal Co-IP of co-expressed Flag-KRT14 and HA-eIF4H (anti-Flag M2, anti-HA); cells not given.
For experiment [4], the target named is Flag-KRT14-Rod (human) (UniProt P02533). In words: co-IP; Co-IP of HA-eIF4H with Flag-KRT14-FL, -Head, -Rod, -Tail in resistant BLCA cells.
The target in experiment [5] is Flag-KRT14-FL (full-length human KRT14 with C-terminal 3×Flag) (human) (UniProt P02533). The experiment is described as above.
In experiment [6] the target is Flag-KRT14-Head (human) (UniProt P02533). The description is as above.
The target in experiment [7] is T1, Flag-KRT14-Tail (human) (UniProt P02533).
T1 sequence: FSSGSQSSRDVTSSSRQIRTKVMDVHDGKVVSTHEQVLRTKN
Described as above.

Experiment [8] concerns the target GST-KRT14-Head (human) (UniProt P02533). Briefly: pull-down; bead-bound GST proteins (Glutathione Sepharose 4B) incubated with 500 µg lysate of HEK293T cells overexpressing HA-eIF4H; 50 mM Tris-HCl pH 7.4, 150 mM NaCl, 1 mM EDTA, 0.5% NP-40, overnight 4 °C; anti-HA blot; only the target purified.
Experiment [9] deals with GST-KRT14-FL (human) (UniProt P02533). The experiment is described as above.
Experiment [10] deals with T2, GST-KRT14-Tail (human) (UniProt P02533).
T2 sequence: T1 sequence
The description is as above.

Experiment [11] deals with GST-KRT14-Rod (human) (UniProt P02533). The experiment is described as above.
Experiment [12] has as its target Eukaryotic translation initiation factor 4H (eIF4H), endogenous (human (endogenous in 5637-CR/T24-CR)) (UniProt Q15056). Briefly: co-IP; eIF4H-IP from resistant cells, blots for eIF4G and eIF4E; cells with control, KRT14 OE (KRT14-WT) or KRT14-MUT (ΔHead).

No constants are given. Whether binding was seen depends on the method and setting. In cells and extracts the contact can be indirect. Some results given as binding are weak or reduced against the parent protein; the word gives no strength. For part of these data: Where a sequence is shown, tags or fusion partners need not be part of it.

For “Eukaryotic translation initiation factor 4H (eIF4H), endogenous (from UniProt Q15056 1-248)”, the binding entry in [1] is “binds”; in [2] it was “no binding”.

Turning to “HA-eIF4H (co-expressed in cells for Co-IP) (from UniProt Q15056 1-248)”, the binding result is “binds” in experiment [3]; “no binding” in experiment [4]; “binds” in [5]; “binds” in experiment [6]; “no binding” in [7].

Regarding “HA-eIF4H (overexpressed in HEK293T, lysate for GST pull-down) (from UniProt Q15056 1-248)”, the binding entry in experiment [8] was “binds”; in [9], “binds”; in experiment [10], “no binding”; in experiment [11], “no binding”.

Regarding “eIF4E, endogenous (from UniProt P06730 1-217)”, the binding entry in [12] is recorded as “binds”.
